Results on 36 molecules are retold here after article PMC5681660, “Reduced hepatitis B and D viral entry using clinically applied drugs as novel inhibitors of the bile acid transporter NTCP” (Scientific Reports, 2017).

The structures appear in SMILES notation. Counter-ions that a name gives are not always drawn. Like-named read-outs stand apart in the source and are kept apart here.

In test [1] the target is T1, human NTCP (Homo sapiens, UniProt Q14973).
T1 sequence (Q14973 1-349): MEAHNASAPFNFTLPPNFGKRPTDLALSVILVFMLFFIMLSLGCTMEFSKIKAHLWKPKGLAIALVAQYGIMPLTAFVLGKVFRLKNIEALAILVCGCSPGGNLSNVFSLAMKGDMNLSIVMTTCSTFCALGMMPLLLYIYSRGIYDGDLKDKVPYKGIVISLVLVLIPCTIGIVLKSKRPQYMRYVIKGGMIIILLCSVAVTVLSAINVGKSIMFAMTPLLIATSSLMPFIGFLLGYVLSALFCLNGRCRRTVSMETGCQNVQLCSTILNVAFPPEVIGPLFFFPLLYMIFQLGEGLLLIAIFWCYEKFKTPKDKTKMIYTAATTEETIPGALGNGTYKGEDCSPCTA
As to the kind of experiment: Screening taurocholate uptake assay (96-well, [14C]taurocholate, 10 µM drug). The settings on record: for remaining activity at 10 µM: 10 min, read-out: %NTCP activity.

The target in test [2] is T1, human NTCP. Description: Screening fluorescent competitive Myrcludex B-FITC binding assay (96-well, 10 µM drug).
[3] abbreviates: screen, 10 µM drug, [14C]taurocholate uptake.
[4] abbreviates: screen, 10 µM drug, Myrcludex B-FITC binding.
[5] abbreviates: Prestwick library screen, 10 µM drug, [14C]taurocholate uptake.
Where [6] appears, read: Prestwick library screen, 10 µM drug, Myrcludex B-FITC binding.

Regarding `COc1cc(NC(C)CCCN)c2ncccc2c1` (stereo not drawn) [Primaquine diphosphate], the remaining activity at 10 µM in test [1] came out at 86.8%; in test [2] (0.5 h, read-out: %NTCP binding) it was 41.3%.
Regarding `CCC1(c2ccccc2)C(=O)NCNC1=O` [Primidone], the remaining activity at 10 µM in test [1] was determined as 76.2%; in test [2] (0.5 h, read-out: %NTCP binding), 86.3%.
`CCCC(C(=O)OCCN(CC)CC)(c1ccccc1)c1ccccc1` [Proadifen hydrochloride]: the remaining activity at 10 µM in test [1] was found to be 97.1%; in test [2] (0.5 h, read-out: %NTCP binding), 79.5%.
Turning to `CCCN(CCC)S(=O)(=O)c1ccc(C(=O)O)cc1` [Probenecid], the remaining activity at 10 µM in test [1] was 81.9%; in test [2] (0.5 h, read-out: %NTCP binding), 82.3%.
Turning to `CC(C)(Sc1cc(C(C)(C)C)c(O)c(C(C)(C)C)c1)Sc1cc(C(C)(C)C)c(O)c(C(C)(C)C)c1` [Probucol], the remaining activity at 10 µM came to 70% in test [1] and 73.5% in test [2] (0.5 h, read-out: %NTCP binding).
Turning to `CCN(CC)CCOC(=O)c1ccc(N)cc1` [Procaine hydrochloride], the remaining activity at 10 µM was 122% in test [1] and 119% in test [2] (0.5 h, read-out: %NTCP binding).
With `CNNCc1ccc(C(=O)NC(C)C)cc1` [Procarbazine hydrochloride], the remaining activity at 10 µM in test [1] is 58.4%; in test [2] (0.5 h, read-out: %NTCP binding) it was 89.4%.
With `OC(CCN1CCCC1)(c1ccccc1)C1CCCCC1` (stereo not drawn) [Procyclidine hydrochloride], the remaining activity at 10 µM in test [1] stood at 91.4%; in test [2] (0.5 h, read-out: %NTCP binding), 101%.
In the same order, the values of `CC(=O)[C@H]1CC[C@H]2[C@@H]3CCC4=CC(=O)CC[C@]4(C)[C@H]3CC[C@]12C` [Progesterone] are 61.1% and 59.8%.
Regarding `[H]/N=C(\N/C(=N/[H])Nc1ccc(Cl)cc1)NC(C)C` [Proguanil hydrochloride], the remaining activity at 10 µM in test [1] worked out at 48.5%; in test [2] (0.5 h, read-out: %NTCP binding) it was 84.8%.
As to `CN(C)CCCN1c2ccccc2Sc2ccccc21` [Promazine hydrochloride], the remaining activity at 10 µM in test [1] turned out to be 107%; in test [2] (0.5 h, read-out: %NTCP binding) it was 69.1%.
Consider `CC(CN1c2ccccc2Sc2ccccc21)N(C)C` (stereo not drawn) [Promethazine hydrochloride], for which the remaining activity at 10 µM in test [1] is 62.7%; in test [2] (0.5 h, read-out: %NTCP binding) it was 99.4%.
In the case of `CC(C)NCC(O)c1ccc2ccccc2c1.Cl` (stereo not drawn) [Pronethalol hydrochloride], the “%NTCP activity” value in test [1] (setting [3]) is 69.3345%. The “%NTCP binding” value in test [2] (setting [4]) is given as 103.471%.
For the molecule `CCCNCC(O)COc1ccccc1C(=O)CCc1ccccc1` (stereo not drawn) [Propafenone hydrochloride], the remaining activity at 10 µM in test [1] turned out to be 27.9%; in test [2] (0.5 h, read-out: %NTCP binding) it was 72.4%.
For `CC(C)[N+](C)(CCOC(=O)C1c2ccccc2Oc2ccccc21)C(C)C` [Propantheline bromide] the same measures were 103% and 113%.
Consider `CCCOc1ccc(C(=O)OCCN(CC)CC)cc1N` [Proparacaine hydrochloride], for which the remaining activity at 10 µM in test [1] came out at 59.9%; in test [2] (0.5 h, read-out: %NTCP binding), 87.5%.
`CCCc1cc(C(N)=S)ccn1` [Prothionamide]: the remaining activity at 10 µM in test [1] was 66.1%; in test [2] (0.5 h, read-out: %NTCP binding) it was 126%.
With `Cc1ncc(CO)c(CO)c1O` [Pyridoxine hydrochloride], the remaining activity at 10 µM was 125% in test [1] and 86.7% in test [2] (0.5 h, read-out: %NTCP binding).
For the molecule `COc1ccc(CN(CCN(C)C)c2ccccn2)cc1` [Pyrilamine maleate], the remaining activity at 10 µM was 30.1% in test [1] and 55.4% in test [2] (0.5 h, read-out: %NTCP binding).
For `CCc1nc(N)nc(N)c1-c1ccc(Cl)cc1` [Pyrimethamine] the same measures were 115% and 117%.
With `CCN(CC)CCCC(C)Nc1c2ccc(Cl)cc2nc2ccc(OC)cc12.Cl.Cl` (stereo not drawn) [Quinacrine dihydrochloride hydrate], the “%NTCP activity” value in test [1] (setting [3]) was 42.6745%. The “%NTCP binding” value in test [2] (setting [4]) turned out to be 104.564%.
In the case of `CCOC(=O)[C@H](CCc1ccccc1)N[C@@H](C)C(=O)N1Cc2ccccc2C[C@H]1C(=O)O` [Quinapril HCl], the remaining activity at 10 µM worked out at 80.4% in test [1] and 101% in test [2] (0.5 h, read-out: %NTCP binding).
For `CCC1NC(=O)c2cc(S(N)(=O)=O)c(Cl)cc2N1` (stereo not drawn) [Quinethazone] the same measures were 89.8% and 83.1%.
Turning to `O=C(O)/C=C\C(=O)O.O=C(O)/C=C\C(=O)O.c1ccc2nc(N3CCNCC3)ccc2c1` [Quipazine dimaleate salt], the “%NTCP activity” value in test [1] (setting [5]) was determined as 121.476%. The “%NTCP binding” value in test [2] (setting [6]) was found to be 88.6853%.
With `COCCCOc1ccnc(C[S+]([O-])c2nc3ccccc3[nH]2)c1C` (stereo not drawn) [Rabeprazole Sodium salt], the remaining activity at 10 µM in test [1] is 120%; in test [2] (0.5 h, read-out: %NTCP binding) it was 75.7%.
For the molecule `CCN1CCC[C@H]1CNC(=O)c1c(O)c(Cl)cc(Cl)c1OC` [Raclopride], the remaining activity at 10 µM in test [1] worked out at 34.5%; in test [2] (0.5 h, read-out: %NTCP binding) it was 46.6%.
In the same order, the values of `Cc1nc2ccc(CN(C)c3ccc(C(=O)N[C@@H](CCC(=O)O)C(=O)O)s3)cc2c(=O)[nH]1` [Raltitrexed] are 71.1% and 80%.
On to `CCOC(=O)[C@H](CCc1ccccc1)N[C@@H](C)C(=O)N1[C@H](C(=O)O)C[C@@H]2CCC[C@@H]21` [Ramipril], for which the remaining activity at 10 µM in test [1] was 150%; in test [2] (0.5 h, read-out: %NTCP binding), 94.1%.
Take `COc1ccccc1OCC(O)CN1CCN(CC(=O)Nc2c(C)cccc2C)CC1` (stereo not drawn) [Ranolazine]: the remaining activity at 10 µM in test [1] was 93.3%; in test [2] (0.5 h, read-out: %NTCP binding) it was 93.2%.
For `O=C(NC(Cc1cc(=O)[nH]c2ccccc12)C(=O)O)c1ccc(Cl)cc1` (stereo not drawn) [Rebamipide] the same measures were 113% and 89.7%.
For `CCOc1ccccc1OC(c1ccccc1)C1CNCCO1.CS(=O)(=O)O` (stereo not drawn) [Reboxetine mesylate], in test [1], the “%NTCP activity” value amounted to 110.669%. The “%NTCP binding” value in test [2] (Prestwick library screen, Myrcludex B-FITC binding, 10 µM drug) worked out at 83.0377%.
Consider `COC(=O)[C@H]1[C@H]2C[C@@H]3c4[nH]c5cc(OC)ccc5c4CCN3C[C@H]2C[C@@H](OC(=O)c2cc(OC)c(OC)c(OC)c2)[C@@H]1OC` [Reserpine], for which the remaining activity at 10 µM came out at 118% in test [1] and 71.6% in test [2] (0.5 h, read-out: %NTCP binding).
As for `NC(=O)c1ncn([C@@H]2O[C@H](CO)[C@@H](O)[C@H]2O)n1` [Ribavirin], the remaining activity at 10 µM in test [1] came to 99.9%; in test [2] (0.5 h, read-out: %NTCP binding), 98.2%.
Take `NC[C@H]1O[C@H](O[C@H]2[C@H](O[C@@H]3O[C@H](CO)[C@@H](O)[C@H]3O)[C@@H](O)[C@H](N)C[C@@H]2N)[C@H](N)[C@@H](O)[C@@H]1O.O=S(=O)(O)O` [Ribostamycin sulfate salt]: the “%NTCP activity” value in test [1] (setting [5]) was found to be 93.127%. Besides, in test [2] (setting [6]), the “%NTCP binding” value is given as 83.6918%.
Consider `CO[C@H]1/C=C/O[C@@]2(C)Oc3c(C)c(O)c4c(c3C2=O)C2=NC3(CCN(CC(C)C)CC3)NC2=C(NC(=O)/C(C)=C\C=C\[C@H](C)[C@H](O)[C@@H](C)[C@@H](O)[C@@H](C)[C@H](OC(C)=O)[C@@H]1C)C4=O` [Rifabutin], for which the remaining activity at 10 µM in test [1] is 107%; in test [2] (0.5 h, read-out: %NTCP binding), 82.4%.
In the case of `CO[C@H]1/C=C/O[C@@]2(C)Oc3c(C)c(O)c4c(O)c(c5c(nc6cc(C)ccn65)c4c3C2=O)NC(=O)/C(C)=C\C=C\[C@H](C)[C@H](O)[C@@H](C)[C@@H](O)[C@@H](C)[C@H](OC(C)=O)[C@@H]1C` [Rifaximin], the remaining activity at 10 µM in test [1] stood at 109%; in test [2] (0.5 h, read-out: %NTCP binding) it was 86.5%.
